Consider six molecules from publication PMC12136788.

The list shows a part of the results.

B1: chr17:48058596:48058697:+|CDS|ENSG00000082641|msi1|total|mutant (ssRNA)
RNA: GGGAGUUCUACAGUCCGACGAUCCAAUGGCACAGCCAAUGACACAGCAGGCCCAGAGCUGCCUGACCCUUUGGGGGGUCUGUCCGAUGAAGCUAUGUUGGAUGAGAUCAGCCUUAUGGACCUGGCCAUUGAAGAAGGCUUUAACAACAGAGGAUUGAGCAUCA
B2: ENSG00000136451:be:win_1|CDS|ENSG00000136451|bound_else_gene|NA|bound_elsewhere_windowed (ssRNA)
RNA: GGGAGUUCUACAGUCCGACGAUCAUGGAGGCCAACUGGACCGCGUUCCUGUUCCAGGCCCAUGAAGCUUCCCAUCACCAACAGCAGGCAGCACAGAACAGCUUGCUGCCCCUCCUGAGCUCUGCCGUGGAGCCCCCUGAUCAGCAACAGAGGAUUGAGCAUCA
B3: chr12:16548371:16551327:-|three_prime_utr|ENSG00000048540|control|control|control (ssRNA)
RNA: GGGAGUUCUACAGUCCGACGAUCCAUUCUUUUAUCUUUUUUGCUCCACAUGUACAUAAGAAUUGACACAGGAACCUACUGAAUAGCGUAGAUAUAGGAAGGCAGGAUGGUUAUAUGGAAUAAAAGGCGGACUGCAUCUGUAUGCAACAGAGGAUUGAGCAUCA
B4: chr6:30541380:30546071:-|three_prime_utr|ENSG00000204590|control|control|control (ssRNA)
RNA: GGGAGUUCUACAGUCCGACGAUCCUGACCUGGGGGUAUCUCCCCUCUGCCACCCCAAUUGUGAAUAAAGAUUGUUUGCUUUGUAGCCCCUUCCCCAGAUGAACUGAGGUGAGAGCGGCUGUUCCAGGCUAACAGCUGUGGGAGCAACAGAGGAUUGAGCAUCA
B5: chr2:240467638:240467855:+|3pUTR|ENSG00000063660|msi1|FALSE|unique (ssRNA)
RNA: GGGAGUUCUACAGUCCGACGAUCGGACGGAGGUCCCCGGUUGCUGGUCAGGUCCCCAUGGCUUGUUCUCUGGAACCUGACUUUAGAUGUUUUGGGAUCAGGAGCCCCCAACACAGGCAAGUCCACCCCAUAAUAACCCUGCCACAACAGAGGAUUGAGCAUCA
B6: ENSG00000148488:stop:overlap|stop_codon|ENSG00000148488|stop_codon|NA|stop_codon (ssRNA)
RNA: GGGAGUUCUACAGUCCGACGAUCAAGAGUCUAAAGCAAGACAAAAGUGCAAAACAAAAAGAAAAACUAUAAACUCCAUCUUGUAGAUUUGUAGAUUCGCCACAACCAAGUCUGACUGUGACACUCCCAAGAAAUCUGUAUGUACAACAGAGGAUUGAGCAUCA

In the experiment the target is MSI1 full-length (mouse, UniProt Q61474 1-362). The experiment is described as follows: nsRBNS (natural sequence RNA bind-n-seq); RBNS binding buffer (assumed for nsRBNS): 25 mM Tris pH 7.5, 150 mM KCl, 3 mM MgCl2, 0.01% Triton X-100, 500 ug/ml BSA, 20 U/ml SUPERase-In, 4 C; UNK is unkempt and MSI1 is Musashi-1; names of the RNAs are library labels; protein concentration not given here; high values mean tight binding.
Sequence of UniProt Q61474 (Q61474 whole entry): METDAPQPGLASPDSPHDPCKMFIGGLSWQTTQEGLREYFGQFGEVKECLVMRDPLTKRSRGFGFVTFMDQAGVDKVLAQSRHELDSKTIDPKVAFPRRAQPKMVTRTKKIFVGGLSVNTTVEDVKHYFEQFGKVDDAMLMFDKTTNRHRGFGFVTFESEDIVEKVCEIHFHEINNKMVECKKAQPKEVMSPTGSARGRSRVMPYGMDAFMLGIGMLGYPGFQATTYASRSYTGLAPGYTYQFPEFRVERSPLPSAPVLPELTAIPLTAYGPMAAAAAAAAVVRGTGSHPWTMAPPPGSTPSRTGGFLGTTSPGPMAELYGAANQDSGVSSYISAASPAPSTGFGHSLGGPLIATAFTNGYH
In the case of B1, the binding signal is 0.295 enrichment R.

B2 showed a binding signal of 0.567 enrichment R.

With B3, the binding signal was found to be 11.3 enrichment R.

For the molecule B4, the binding signal was 0.482 enrichment R.

As to B5, the binding signal came to 0.416 enrichment R.

On to B6, for which the binding signal is 0.278 enrichment R.
